The record followed here is the supplement of paper PMC12217912.

The other results are listed elsewhere or left out. Sequences were assembled here from the parent chain. Inactive controls read about 0.05.

B1: TEV protease; numbered along this chain (parent)
chain: MGESLFKGPRDYNPISSSICHLTNESDGHTTSLYGIGFGPFIITNKHLFRRNNGTLVVQSLHGVFKVKDTTTLQQHLVDGRDMIIIRMPKDFPPFPQKLKFREPQREERICLVTTNFQTKSMSSMVSDTSCTFPSGDGIFWKHWIQTKDGQCGSPLVSTRDGFIVGIHSASNFTNTNNYFTSVPKNFMELLTNQEAQQWVSGWRLNADSVLWGGHKVFMVKPEEPFQPVKEATQL

The variants in this assay derive from B1. The experiment in a line: raw area under fraction-flipped curve 0-4 h after induction (AUC4h, not background-subtracted), DNA-recorder readout of cleavage of the substrate (dimensionless); higher = more cleavage of the substrate by the protease variant. Particulars: temperature: 34 °C; time window: 0-4 h after rhamnose induction.
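Further: Bxb1 expression induced with 0.2% (w/v) L-rhamnose at OD600 near 0.5, cultures sampled hourly, flipped fraction per protease–substrate barcode pair counted by paired-end Illumina sequencing.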

Regarding MGESLFKGPRDYNPISSSICHLTNESDGHTTSLYGIGFGPFIITNKHLFRRNNGTLVVQSLHGVFKVKDTTTLQQHLVDGRDMIIIRMPKDFPPFPQKLKFREPQREERICLVTTNYQTKSMSSMVSDTSCTFPSGDGIFWKHWIQTKDGQCGSPLVSTRDGFIVGIHSASNFTNTNNYFTSVPKNFMELLTNQEAQQWVSGWRLNADSVLWGGHKVFMVKPEEPFQPVKEATQL [F117Y], the “area with substrate ENLYDQS” value is 0.0604, the “area with substrate ENLYGQS” value was 0.0401, the “area with substrate ENLYHQS” value turned out to be 0.0767 and the “area with substrate ENLYIQS” value was 0.151. For the same variant, the “area with substrate ENLYRQS” value is 0.0542, the “area with substrate ENLYSQS” value worked out at 0.0818 and the “area with substrate ENLYVQS” value came to 0.138.
For MGESLFKGPRDYNPISSSICHLTNESDGHTTSLYGIGFGPFIITNKHLFRRNNGTLVVQSLHGVFKVKDTTTLQQHLVDGRDMIIIRMPKDFPPFPQKLKFREPQRQERICLVTTNFQTKSMSSMVSDTSCTFPSGDGIFWKHWIQTKDGQCGSPLVSTRDGFIVGIHSASNFTNTNNYFTSVPKNFMELLTNQEAQQWVSGWRLNADSVLWGGHKVFMVKPEEPFQPVKEATQL [E107Q], the “area with substrate ENLYDQS” value came out at 0.0939, the “area with substrate ENLYEQS” value came to 0.0549, the “area with substrate ENLYGQS” value is 0.0709 and the “area with substrate ENLYKQS” value is 0.0425. Further, the “area with substrate ENLYLQS” value came to 0.078, the “area with substrate ENLYPQS” value was 0.0771, the “area with substrate ENLYRQS” value amounted to 0.0537 and the “area with substrate ENLYSQS” value worked out at 0.0833. The “area with substrate ENLYTQS” value turned out to be 0.0613 and the “area with substrate ENLYYQS” value worked out at 0.0664.
With MGESLFKGPRDYNPISSSICHLTNESDGHTTSLYGIGFGPFIITNKHLFRRNNGTLVVQSLHGVFKVKDTTTLQQHLVDGRDMIIIRMPKDFPPFPQKLKFREPQRVERICLVTTNFQTKSMSSMVSDTSCTFPSGDGIFWKHWIQTKDGQCGSPLVSTRDGFIVGIHSASNFTNTNNYFTSVPKNFMELLTNQEAQQWVSGWRLNADSVLWGGHKVFMVKPEEPFQPVKEATQL [E107V], the “area with substrate ENLYDQS” value stood at 0.0599, the “area with substrate ENLYEQS” value came out at 0.0794, the “area with substrate ENLYHQS” value stood at 0.0681 and the “area with substrate ENLYIQS” value came out at 0.137. Also, the “area with substrate ENLYKQS” value stood at 0.0715, the “area with substrate ENLYLQS” value worked out at 0.0991, the “area with substrate ENLYNQS” value was 0.0708 and the “area with substrate ENLYRQS” value was determined as 0.0754. In addition, the “area with substrate ENLYTQS” value is 0.0843 and the “area with substrate ENLYWQS” value is 0.
With MGESLFKGPRDYNPISSSICHLTNESDGHTTSLYGIGFGPFIITNKHLFRRNNGTLVVQSLHGVFKVKDTTTLQQHLVDGRDMIIIRMPKDFPPFPQKLKFREPQREERICLETTNFQTKSMSSMVSDTSCTFPSGDGIFWKHWIQTKDGQCGSPLVSTRDGFIVGIHSASNFTNTNNYFTSVPKNFMELLTNQEAQQWVSGWRLNADSVLWGGHKVFMVKPEEPFQPVKEATQL [V113E], the “area with substrate ENLYDQS” value came out at 0.041, the “area with substrate ENLYEQS” value came to 0.0596, the “area with substrate ENLYGQS” value stood at 0.0621 and the “area with substrate ENLYHQS” value turned out to be 0.0626. The “area with substrate ENLYIQS” value turned out to be 0.0694, the “area with substrate ENLYKQS” value stood at 0.0539, the “area with substrate ENLYLQS” value was 0.0642 and the “area with substrate ENLYMQS” value came to 0.0544. The “area with substrate ENLYNQS” value was found to be 0.0468, the “area with substrate ENLYPQS” value was determined as 0.0569, the “area with substrate ENLYQQS” value came to 0.0571 and the “area with substrate ENLYRQS” value is 0.041. In addition, the “area with substrate ENLYSQS” value was 0.0597, the “area with substrate ENLYTQS” value stood at 0.0613, the “area with substrate ENLYVQS” value stood at 0.0706 and the “area with substrate ENLYWQS” value amounted to 0.0634.
As to MGESLFKGPRDYNPISSSICHLTNESDGHTTSLYGIGFGPFIITNKHLFRRNNGTLVVQSLHGVFKVKDTTTLQQHLVDGRDMIIIRMPKDFPPFPQKLKFREPQREERICLVTTNFETKSMSSMVSDTSCTFPSGDGIFWKHWIQTKDGQCGSPLVSTRDGFIVGIHSASNFTNTNNYFTSVPKNFMELLTNQEAQQWVSGWRLNADSVLWGGHKVFMVKPEEPFQPVKEATQL [Q118E], the “area with substrate ENLYDQS” value is 0.0598, the “area with substrate ENLYIQS” value was determined as 0.129, the “area with substrate ENLYKQS” value was 0.0597 and the “area with substrate ENLYNQS” value amounted to 0.0504. Further, the “area with substrate ENLYPQS” value worked out at 0.0807, the “area with substrate ENLYRQS” value was 0.077, the “area with substrate ENLYSQS” value was 0.0716 and the “area with substrate ENLYVQS” value is 0.14.
MGESLFKGPRDYNPISSSICHLTNESDGHTTSLYGIGFGPFIITNKHLFRRNNGTLVVQSLHGVFKVKDTTTLQQHLVDGRDMIIIRMPKDFPPFPQKLKFREPQREERWCLVTTNFQTKSMSSMVSDTSCTFPSGDGIFWKHWIQTKDGQCGSPLVSTRDGFIVGIHSASNFTNTNNYFTSVPKNFMELLTNQEAQQWVSGWRLNADSVLWGGHKVFMVKPEEPFQPVKEATQL [I110W]: the “area with substrate ENLYDQS” value turned out to be 0.0443, the “area with substrate ENLYEQS” value turned out to be 0.055, the “area with substrate ENLYHQS” value is 0.0512 and the “area with substrate ENLYIQS” value was found to be 0.0352. In addition, the “area with substrate ENLYPQS” value turned out to be 0.0561, the “area with substrate ENLYRQS” value worked out at 0.0596 and the “area with substrate ENLYVQS” value stood at 0.0639.
Regarding MGESLFKGPRDYNPISSSICHLTNESDGHTTSLYGIGFGPFIITNKHLFRRNNGTLVVQSLHGVFKVKDTTTLQQHLVDGRDMIIIRMPKDFPPFPQKLKFREPQREERICLVTTNFQTKSMSSMVSDTSCTFPEGDGIFWKHWIQTKDGQCGSPLVSTRDGFIVGIHSASNFTNTNNYFTSVPKNFMELLTNQEAQQWVSGWRLNADSVLWGGHKVFMVKPEEPFQPVKEATQL [S135E], the “area with substrate ENLYDQS” value was 0.0657, the “area with substrate ENLYGQS” value came to 0.0743, the “area with substrate ENLYHQS” value stood at 0.0546 and the “area with substrate ENLYNQS” value is 0.0693. For the same variant, the “area with substrate ENLYPQS” value was found to be 0.0455, the “area with substrate ENLYVQS” value stood at 0.0817, the “area with substrate ENLYWQS” value was found to be 0.0809 and the “area with substrate ENLYYQS” value was 0.0619.
Take MGESLFKGPRDYNPISSSICHLTNESDGHTTSLYGIGFGPFIITNKHLFRRNNGTLVVQSLHGVFKVKDTTTLQQHLVDGRDMIIIRMPKDFPPFPQKLKFREPQREERICLVTTNFQTKSMSSMVSDTSCTFPMGDGIFWKHWIQTKDGQCGSPLVSTRDGFIVGIHSASNFTNTNNYFTSVPKNFMELLTNQEAQQWVSGWRLNADSVLWGGHKVFMVKPEEPFQPVKEATQL [S135M]: the “area with substrate ENLYDQS” value came to 0.0422, the “area with substrate ENLYEQS” value was determined as 0.0528, the “area with substrate ENLYGQS” value worked out at 0.0561 and the “area with substrate ENLYHQS” value stood at 0.0563. Besides, the “area with substrate ENLYIQS” value was 0.0716, the “area with substrate ENLYMQS” value worked out at 0.0677, the “area with substrate ENLYNQS” value amounted to 0.0554 and the “area with substrate ENLYPQS” value was found to be 0.0614. Further, the “area with substrate ENLYQQS” value came out at 0.0541, the “area with substrate ENLYRQS” value is 0.0688, the “area with substrate ENLYSQS” value was determined as 0.0599 and the “area with substrate ENLYTQS” value came to 0.0501. The “area with substrate ENLYWQS” value turned out to be 0.0623 and the “area with substrate ENLYYQS” value was determined as 0.0499.
Consider MGESLFKGPRDYNPISSSICHLTNESDGHTTSLYGIGFGPFIITNKHLFRRNNGTLVVQSLHGVFKVKDTTTLQQHLVDGRDMIIIRMPKDFPPFPQKLKFREPQREERICLVTTGFQTKSMSSMVSDTSCTFPSGDGIFWKHWIQTKDGQCGSPLVSTRDGFIVGIHSASNFTNTNNYFTSVPKNFMELLTNQEAQQWVSGWRLNADSVLWGGHKVFMVKPEEPFQPVKEATQL [N116G], for which the “area with substrate ENLYDQS” value worked out at 0.0638, the “area with substrate ENLYEQS” value came to 0.106, the “area with substrate ENLYGQS” value amounted to 0.0576 and the “area with substrate ENLYHQS” value turned out to be 0.0722. Also, the “area with substrate ENLYIQS” value stood at 0.112, the “area with substrate ENLYKQS” value amounted to 0.0627, the “area with substrate ENLYPQS” value was found to be 0.067 and the “area with substrate ENLYQQS” value worked out at 0.0484. Also, the “area with substrate ENLYRQS” value turned out to be 0.0323, the “area with substrate ENLYSQS” value is 0.0665, the “area with substrate ENLYVQS” value is 0.102 and the “area with substrate ENLYWQS” value was 0.0825.
MGESLFKGPRDYNPISSSICHLTNESDGHTTSLYGIGFGPFIITNKHLFRRNNGTLVVQSLHGVFKVKDTTTLQQHLVDGRDMIIIRMPKDFPPFPQKLKFREPQREERICLVTTNFQTKSMSSMVSDTSCTFPSGDGIFWKHEIQTKDGQCGSPLVSTRDGFIVGIHSASNFTNTNNYFTSVPKNFMELLTNQEAQQWVSGWRLNADSVLWGGHKVFMVKPEEPFQPVKEATQL [W144E]: the “area with substrate ENLYDQS” value stood at 0.075, the “area with substrate ENLYEQS” value worked out at 0.13, the “area with substrate ENLYGQS” value was 0.0633 and the “area with substrate ENLYHQS” value came to 0.0799. The “area with substrate ENLYIQS” value was found to be 0.111, the “area with substrate ENLYKQS” value came out at 0.0651, the “area with substrate ENLYLQS” value was 0.0782 and the “area with substrate ENLYMQS” value is 0.0718. Further, the “area with substrate ENLYNQS” value is 0.0655, the “area with substrate ENLYPQS” value worked out at 0.0679, the “area with substrate ENLYQQS” value worked out at 0.0629 and the “area with substrate ENLYRQS” value was determined as 0.063. The “area with substrate ENLYSQS” value stood at 0.0994, the “area with substrate ENLYVQS” value turned out to be 0.0832 and the “area with substrate ENLYWQS” value is 0.0722.
